The other results are listed elsewhere or left out. The list includes weakly bound sequences.
The sequences below were run against T1, MBP-FoxP3dN (UniProt Q99JB6) (assay: PD-seq (MBP pull-down with sequencing)). Conditions: 20 mM Tris-HCl pH 7.5, 100 mM NaCl, 1.5 mM MgCl2, 0.4 uM protein, 0.1 uM dsDNA library, 30 min, room temperature, amylose pull-down; high values mean tight binding; double strand, one strand shown.
T1 sequence: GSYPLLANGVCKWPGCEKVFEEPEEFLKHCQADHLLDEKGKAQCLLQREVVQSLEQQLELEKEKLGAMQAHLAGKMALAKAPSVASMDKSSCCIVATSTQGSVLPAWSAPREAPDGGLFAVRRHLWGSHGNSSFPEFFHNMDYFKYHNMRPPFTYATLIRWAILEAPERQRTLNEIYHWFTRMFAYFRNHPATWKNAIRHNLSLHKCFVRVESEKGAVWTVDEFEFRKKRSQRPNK

Sequence	binding signal (RPM ratio (pull-down/input))
GATGATTGTTCTCCCAGCTGATGAATTCCAAGAATCGAGTAAACAAATTTTCCTAATCTTTCTGTTCAAGCGCCATCTAC	0.156
GATGATTGTTCTCCCAGCTGATGAATTTATTCACTCGAGTAAACAAATTTTCCTAATCTTTCTGTTCAAGCGCCATCTAC	0.821
GATGATTGTTCTCCCAGCTGATGAATTAGTCGCGTCGAGTAAACAAATTTTCCTAATCTTTCTGTTCAAGCGCCATCTAC	0.919
GATGATTGTTCTCCCAGCTGATGAATTGAAGGTGTCGAGTAAACAAATTTTCCTAATCTTTCTGTTCAAGCGCCATCTAC	0.428
GATGATTGTTCTCCCAGCTGATGAATTCGCCGTCTCGAGTAAACAAATTTTCCTAATCTTTCTGTTCAAGCGCCATCTAC	0.497
GATGATTGTTCTCCCAGCTGATGAATTGAAATACTCGAGTAAACAAATTTTCCTAATCTTTCTGTTCAAGCGCCATCTAC	0.437
GATGATTGTTCTCCCAGCTGATGAATTGCGATCGTCGAGTAAACAAATTTTCCTAATCTTTCTGTTCAAGCGCCATCTAC	0.79
GATGATTGTTCTCCCAGCTGATGAATTCTAAGTGTCGAGTAAACAAATTTTCCTAATCTTTCTGTTCAAGCGCCATCTAC	0.48
GATGATTGTTCTCCCAGCTGATGAATTGGCGACTTCGAGTAAACAAATTTTCCTAATCTTTCTGTTCAAGCGCCATCTAC	0.807
GATGATTGTTCTCCCAGCTGATGAATTAGGGTCTTCGAGTAAACAAATTTTCCTAATCTTTCTGTTCAAGCGCCATCTAC	0.666
GATGATTGTTCTCCCAGCTGATGAATTACGCATTTCGAGTAAACAAATTTTCCTAATCTTTCTGTTCAAGCGCCATCTAC	6.65
GATGATTGTTCTCCCAGCTGATGAATTATCTAAGTCGAGTAAACAAATTTTCCTAATCTTTCTGTTCAAGCGCCATCTAC	0.246
GATGATTGTTCTCCCAGCTGATGAATTCACAAGTTCGAGTAAACAAATTTTCCTAATCTTTCTGTTCAAGCGCCATCTAC	0.282
GATGATTGTTCTCCCAGCTGATGAATTGCTAAAGTCGAGTAAACAAATTTTCCTAATCTTTCTGTTCAAGCGCCATCTAC	0.386
GATGATTGTTCTCCCAGCTGATGAATTAGAGTGCTCGAGTAAACAAATTTTCCTAATCTTTCTGTTCAAGCGCCATCTAC	0.527
GATGATTGTTCTCCCAGCTGATGAATTAGCGGTATCGAGTAAACAAATTTTCCTAATCTTTCTGTTCAAGCGCCATCTAC	0.625
GATGATTGTTCTCCCAGCTGATGAATTGATTAGTTCGAGTAAACAAATTTTCCTAATCTTTCTGTTCAAGCGCCATCTAC	1.87
GATGATTGTTCTCCCAGCTGATGAATTAATTGCGTCGAGTAAACAAATTTTCCTAATCTTTCTGTTCAAGCGCCATCTAC	1.46
GATGATTGTTCTCCCAGCTGATGAATTACTTACATCGAGTAAACAAATTTTCCTAATCTTTCTGTTCAAGCGCCATCTAC	0.574
GATGATTGTTCTCCCAGCTGATGAATTGGTCCTCTCGAGTAAACAAATTTTCCTAATCTTTCTGTTCAAGCGCCATCTAC	0.368
GATGATTGTTCTCCCAGCTGATGAATTAGCTAGATCGAGTAAACAAATTTTCCTAATCTTTCTGTTCAAGCGCCATCTAC	0.34

Sequence	binding signal (RPM ratio (pull-down/input))
GATGATTGTTCTCCCAGCTGATGAATTGCGAGCATCGAGTAAACAAATTTTCCTAATCTTTCTGTTCAAGCGCCATCTAC	1.29
GATGATTGTTCTCCCAGCTGATGAATTTACGCTTTCGAGTAAACAAATTTTCCTAATCTTTCTGTTCAAGCGCCATCTAC	1.32
GATGATTGTTCTCCCAGCTGATGAATTAAATGTCTCGAGTAAACAAATTTTCCTAATCTTTCTGTTCAAGCGCCATCTAC	0.871
GATGATTGTTCTCCCAGCTGATGAATTACATATCTCGAGTAAACAAATTTTCCTAATCTTTCTGTTCAAGCGCCATCTAC	0.928
GATGATTGTTCTCCCAGCTGATGAATTATTCCAATCGAGTAAACAAATTTTCCTAATCTTTCTGTTCAAGCGCCATCTAC	0.373
GATGATTGTTCTCCCAGCTGATGAATTACGTATGTCGAGTAAACAAATTTTCCTAATCTTTCTGTTCAAGCGCCATCTAC	2.23
GATGATTGTTCTCCCAGCTGATGAATTCTTGCGCTCGAGTAAACAAATTTTCCTAATCTTTCTGTTCAAGCGCCATCTAC	0.482
GATGATTGTTCTCCCAGCTGATGAATTAGCGTACTCGAGTAAACAAATTTTCCTAATCTTTCTGTTCAAGCGCCATCTAC	1.26
GATGATTGTTCTCCCAGCTGATGAATTGCAGGCGTCGAGTAAACAAATTTTCCTAATCTTTCTGTTCAAGCGCCATCTAC	0.915
GATGATTGTTCTCCCAGCTGATGAATTCCGCAGGTCGAGTAAACAAATTTTCCTAATCTTTCTGTTCAAGCGCCATCTAC	0.841
GATGATTGTTCTCCCAGCTGATGAATTGATTCCATCGAGTAAACAAATTTTCCTAATCTTTCTGTTCAAGCGCCATCTAC	0.42
GATGATTGTTCTCCCAGCTGATGAATTAGACCGATCGAGTAAACAAATTTTCCTAATCTTTCTGTTCAAGCGCCATCTAC	0.254
GATGATTGTTCTCCCAGCTGATGAATTAGCTTAATCGAGTAAACAAATTTTCCTAATCTTTCTGTTCAAGCGCCATCTAC	0.382
GATGATTGTTCTCCCAGCTGATGAATTTGCGTGGTCGAGTAAACAAATTTTCCTAATCTTTCTGTTCAAGCGCCATCTAC	3.67
GATGATTGTTCTCCCAGCTGATGAATTCTATAATTCGAGTAAACAAATTTTCCTAATCTTTCTGTTCAAGCGCCATCTAC	0.441
GATGATTGTTCTCCCAGCTGATGAATTTTTAACTTCGAGTAAACAAATTTTCCTAATCTTTCTGTTCAAGCGCCATCTAC	0.269
GATGATTGTTCTCCCAGCTGATGAATTACCGCAATCGAGTAAACAAATTTTCCTAATCTTTCTGTTCAAGCGCCATCTAC	2.61
GATGATTGTTCTCCCAGCTGATGAATTGTTCCTTTCGAGTAAACAAATTTTCCTAATCTTTCTGTTCAAGCGCCATCTAC	0.426
GATGATTGTTCTCCCAGCTGATGAATTCTGGATATCGAGTAAACAAATTTTCCTAATCTTTCTGTTCAAGCGCCATCTAC	0.541
GATGATTGTTCTCCCAGCTGATGAATTCTTCGGATCGAGTAAACAAATTTTCCTAATCTTTCTGTTCAAGCGCCATCTAC	0.185
GATGATTGTTCTCCCAGCTGATGAATTGGGATAGTCGAGTAAACAAATTTTCCTAATCTTTCTGTTCAAGCGCCATCTAC	0.431

Sequence	binding signal (RPM ratio (pull-down/input))
GATGATTGTTCTCCCAGCTGATGAATTACCTTATTCGAGTAAACAAATTTTCCTAATCTTTCTGTTCAAGCGCCATCTAC	0.353
GATGATTGTTCTCCCAGCTGATGAATTGGACATATCGAGTAAACAAATTTTCCTAATCTTTCTGTTCAAGCGCCATCTAC	0.453
GATGATTGTTCTCCCAGCTGATGAATTCCCATAGTCGAGTAAACAAATTTTCCTAATCTTTCTGTTCAAGCGCCATCTAC	0.234
GATGATTGTTCTCCCAGCTGATGAATTGCGCCCGTCGAGTAAACAAATTTTCCTAATCTTTCTGTTCAAGCGCCATCTAC	3.12
GATGATTGTTCTCCCAGCTGATGAATTTTTTAAATCGAGTAAACAAATTTTCCTAATCTTTCTGTTCAAGCGCCATCTAC	0.217
GATGATTGTTCTCCCAGCTGATGAATTGCGAAAATCGAGTAAACAAATTTTCCTAATCTTTCTGTTCAAGCGCCATCTAC	0.404
GATGATTGTTCTCCCAGCTGATGAATTCAACTCGTCGAGTAAACAAATTTTCCTAATCTTTCTGTTCAAGCGCCATCTAC	0.296
GATGATTGTTCTCCCAGCTGATGAATTGTTCCGCTCGAGTAAACAAATTTTCCTAATCTTTCTGTTCAAGCGCCATCTAC	0.333
GATGATTGTTCTCCCAGCTGATGAATTATTCGATTCGAGTAAACAAATTTTCCTAATCTTTCTGTTCAAGCGCCATCTAC	0.442
GATGATTGTTCTCCCAGCTGATGAATTTATGAGTTCGAGTAAACAAATTTTCCTAATCTTTCTGTTCAAGCGCCATCTAC	3.06
GATGATTGTTCTCCCAGCTGATGAATTTATAAAATCGAGTAAACAAATTTTCCTAATCTTTCTGTTCAAGCGCCATCTAC	0.293
GATGATTGTTCTCCCAGCTGATGAATTCCCGTGGTCGAGTAAACAAATTTTCCTAATCTTTCTGTTCAAGCGCCATCTAC	0.283
GATGATTGTTCTCCCAGCTGATGAATTATACGATTCGAGTAAACAAATTTTCCTAATCTTTCTGTTCAAGCGCCATCTAC	0.442
GATGATTGTTCTCCCAGCTGATGAATTTCCTTGGTCGAGTAAACAAATTTTCCTAATCTTTCTGTTCAAGCGCCATCTAC	0.239
GATGATTGTTCTCCCAGCTGATGAATTATATAACTCGAGTAAACAAATTTTCCTAATCTTTCTGTTCAAGCGCCATCTAC	0.431
GATGATTGTTCTCCCAGCTGATGAATTCCGAGATTCGAGTAAACAAATTTTCCTAATCTTTCTGTTCAAGCGCCATCTAC	0.366
GATGATTGTTCTCCCAGCTGATGAATTACTCAAGTCGAGTAAACAAATTTTCCTAATCTTTCTGTTCAAGCGCCATCTAC	0.263
GATGATTGTTCTCCCAGCTGATGAATTTGCCTTATCGAGTAAACAAATTTTCCTAATCTTTCTGTTCAAGCGCCATCTAC	1.39
GATGATTGTTCTCCCAGCTGATGAATTCGAGCCGTCGAGTAAACAAATTTTCCTAATCTTTCTGTTCAAGCGCCATCTAC	0.378
GATGATTGTTCTCCCAGCTGATGAATTGGGGGCCTCGAGTAAACAAATTTTCCTAATCTTTCTGTTCAAGCGCCATCTAC	0.587
GATGATTGTTCTCCCAGCTGATGAATTTGATTTGTCGAGTAAACAAATTTTCCTAATCTTTCTGTTCAAGCGCCATCTAC	4.76
